# Source: paper PMC4336329 (PLoS ONE, 2015)
# Among all 310,000 compounds or so, about 14,000 (4.5%) showed an effect of 50% or more. The effect is printed as a negative number. This is one part of the list.
# Target: human ether-à-go-go-related gene (hERG) potassium channel (human, UniProt Q12809)
# Test: primary screen, population patch clamp on CHO cells stably expressing hERG
# 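Further: peak tail current of the secondary pulse compared with the same well before compound.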
# Sequence of human ether-à-go-go-related gene (hERG) potassium channel (Q12809 whole entry, looked up): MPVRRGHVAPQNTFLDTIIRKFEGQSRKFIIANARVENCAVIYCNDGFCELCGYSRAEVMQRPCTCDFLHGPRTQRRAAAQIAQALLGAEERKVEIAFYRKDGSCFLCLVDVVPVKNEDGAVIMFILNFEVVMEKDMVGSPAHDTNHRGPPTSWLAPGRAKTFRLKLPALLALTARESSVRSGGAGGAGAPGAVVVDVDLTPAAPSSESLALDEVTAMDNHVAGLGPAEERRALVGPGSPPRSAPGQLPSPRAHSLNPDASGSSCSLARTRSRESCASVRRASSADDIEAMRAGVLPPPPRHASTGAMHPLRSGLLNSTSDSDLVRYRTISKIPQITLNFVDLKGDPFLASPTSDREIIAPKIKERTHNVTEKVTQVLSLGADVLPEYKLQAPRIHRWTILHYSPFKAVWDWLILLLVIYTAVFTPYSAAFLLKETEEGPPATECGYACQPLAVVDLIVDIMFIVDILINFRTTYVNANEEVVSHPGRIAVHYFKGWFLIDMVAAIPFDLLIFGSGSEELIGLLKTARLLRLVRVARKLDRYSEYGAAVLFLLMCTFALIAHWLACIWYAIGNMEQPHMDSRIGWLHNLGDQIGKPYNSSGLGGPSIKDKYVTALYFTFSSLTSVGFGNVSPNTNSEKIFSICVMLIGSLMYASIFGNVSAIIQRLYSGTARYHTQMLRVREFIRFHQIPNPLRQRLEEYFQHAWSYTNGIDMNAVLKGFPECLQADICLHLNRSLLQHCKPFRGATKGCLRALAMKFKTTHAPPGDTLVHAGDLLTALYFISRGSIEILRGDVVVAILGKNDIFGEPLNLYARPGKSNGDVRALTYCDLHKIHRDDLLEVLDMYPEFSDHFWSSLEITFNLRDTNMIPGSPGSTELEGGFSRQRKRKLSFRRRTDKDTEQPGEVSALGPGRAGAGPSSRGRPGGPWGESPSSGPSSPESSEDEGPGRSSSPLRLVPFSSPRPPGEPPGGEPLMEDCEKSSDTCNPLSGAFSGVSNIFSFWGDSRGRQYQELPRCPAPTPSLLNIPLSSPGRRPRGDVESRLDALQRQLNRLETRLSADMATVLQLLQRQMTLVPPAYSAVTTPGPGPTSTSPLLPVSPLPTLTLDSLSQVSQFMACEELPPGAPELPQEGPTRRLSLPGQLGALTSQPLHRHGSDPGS
row,Structure (SMILES),"hERG current change (%, negative = inhibition) at 10uM [%]"
1,O=c1[nH]c2cc(Cl)ccc2c(O)c1-c1cccc(Oc2ccccc2)c1,3.45
2,COc1ccc(NC(=O)CSc2nc3c(c(=O)n(C)c(=O)n3C)n2C)c(OC)c1,5.57
3,CC(C)(C)c1ccc(OC(=O)Cn2c(C(F)(F)F)nc3ccccc32)cc1,0.924
4,O=S(=O)([O-])CCC[n+]1c(SCCCS(=O)(=O)O)sc2ccc(Cl)cc21,4.11
5,Cc1sc2ncnc(N3CCN(S(=O)(=O)c4ccc(Br)cc4)CC3)c2c1C,-47.5
6,O=C(c1cccc(F)c1F)N1CCCC1,24.7
7,O=S(=O)(Nc1ccc(-c2ccc(N3CCOCC3)nn2)cc1)c1cc(Cl)ccc1Cl,-35.3
8,CCOc1cccc(/C(O)=C2/C(=O)C(=O)N(Cc3cccnc3)C2c2ccco2)c1 (stereo not shown),0.332
9,CCc1ccc(N2CC(C(=O)OCc3nc4ccsc4c(=O)[nH]3)CC2=O)cc1 (stereo not shown),-26
10,CC1CCN(CCOc2ccccc2-c2ccccc2)CC1.O=C(O)C(=O)O,-58.6
11,O=C1OC(Cc2ccccn2)C(O)=C1C1=NCCCN1 (stereo not shown),-5.55
12,CCN1C(=O)/C(=C/c2nc3ccccc3c(=O)[nH]2)c2ccccc21,1.43
13,COC(=O)c1ccccc1NC(=O)c1noc2c1CCC2,5.22
14,CCOC(=O)c1ccc(S(=O)(=O)N2CCN(C(=O)C3CSC4(C)CCC(=O)N34)CC2)cc1 (stereo not shown),-23.6
15,NC(=S)c1cc2cc(Br)ccc2oc1=O,9.47
16,Cc1ccc(C(=O)NCCS(=O)(=O)N2CCN(c3ccccc3F)CC2)cc1[N+](=O)[O-],5.07
17,COCCNc1nnc(SCC(=O)NNC(=O)c2ccccc2)s1,18.6
18,Cc1ccc(-n2ncc3c(SCC(=O)NNC(=O)c4ccco4)ncnc32)cc1,23.5
19,CCOC(=O)c1ccccc1NC(=O)Cc1ccccc1OC,-18.5
20,CN(c1ccccc1)S(=O)(=O)c1cccc(NC(=O)C2CC(=O)N(Cc3ccccc3)C2)c1 (stereo not shown),-26.2
21,CN1CCN(S(=O)(=O)c2ccc(NC(=O)c3csc4ccccc34)cc2)CC1,-17.5
22,Cc1ccc(S(=O)(=O)N2CCCC2CO)cc1 (stereo not shown),-1.55

row,Structure (SMILES),"hERG current change (%, negative = inhibition) at 10uM [%]"
1,O=C(NCc1nnc(SCC(=O)N2CCc3ccccc32)o1)c1cccs1,-12.6
2,CC1CCCN(C(=O)c2cc(-c3ccco3)nc3ccccc23)C1 (stereo not shown),-15.5
3,COc1cccc(CNc2ccc(C(=O)O)cc2)c1OCc1ccccc1,-13.6
4,C/C(CC(=O)NCc1ccc(F)cc1)=N\NC(N)=S,18.9
5,OC(COc1ccc2c(c1)OCO2)CN1CCCCC1 (stereo not shown),18.6
6,O=S(=O)(c1ccc2c(c1)C(O)c1ccccc1CC2)C(F)(F)F (stereo not shown),-11
7,COc1ccc(C(=O)Nc2cccc3ccccc23)cc1,1.02
8,O=C(CN(Cc1cccs1)C(=O)CNS(=O)(=O)c1ccccc1)NC1CCCC1,-8.15
9,O=c1[nH][nH]cc1C=Nc1ccccc1O,18.6
10,Cc1cc(NC(=O)COc2cccc([N+](=O)[O-])c2)no1,14.1
11,COc1ccc(Nc2ncc(C(=O)N3CCN(c4ccc(F)cc4)CC3)c3ccccc23)cc1,-6.15
12,CCOC(=O)C(NC(=O)NCc1cccc(C(F)(F)F)c1)(OCC)C(F)(F)F (stereo not shown),19.8
13,C1CCN(c2nc3nonc3nc2N2CCCC2)C1,4.84
14,CCc1cc2cc(C)cc(C)c2nc1Cl,22.6
15,Cc1cc(NS(=O)(=O)c2ccc(NC(=O)c3cc(-c4ccccc4Cl)nc4ccccc34)cc2)no1,-27.2
16,CCCOC(=O)c1ccc(Oc2cn[nH]c2-c2ccc(OCC(=O)NN)cc2O)cc1,-0.979
17,Cc1cc(C)c(C)c(S(=O)(=O)N2CCC(C(=O)NC3=NCCS3)CC2)c1C,-0.713
18,CCOc1cc(Br)c(C(C)NC(=O)c2cccnc2)cc1OCC (stereo not shown),-5.16
19,CCCn1cc(CN2CCC(n3nccc3NC(=O)c3ccc4c(c3)OCO4)CC2)c(C)n1,-5.62
20,Cc1ccc(C)c(N(CC(=O)NCCSCc2ccco2)S(C)(=O)=O)c1,8.7
21,COCCN(C(=S)Nc1c(C)cccc1C)C(C)c1ccco1 (stereo not shown),-10.7
22,COc1ccc(Cl)cc1N(CC(=O)N/N=C/c1ccc(OC(C)C)cc1)S(=O)(=O)c1ccc(C)c([N+](=O)[O-])c1,21.4

row,Structure (SMILES),"hERG current change (%, negative = inhibition) at 10uM [%]"
1,CCOc1ccc(N(C(C)C(=O)NC(C)CC)S(C)(=O)=O)cc1 (stereo not shown),6.99
2,CSc1nnc(-c2cc(Br)ccc2N=Cc2c(C)[nH]n(-c3ccccc3)c2=O)c(=O)[nH]1,-19.2
3,C#CCNC(=O)/C=C/c1ccc(OC)cc1,0.687
4,O=C(CSc1n[nH]c(=O)n1C1CC1)c1c[nH]c2ccccc12,9.29
5,Cc1noc(C)c1S(=O)(=O)N1CCC(C(N)=O)CC1,11.9
6,COc1cccc(-n2c(C)cc(/C=C3\C(=N)N4N=C(CC(=O)N5CCOCC5)SC4=NC3=O)c2C)c1,-5.1
7,Cn1c(N)c(C(=O)COC(=O)C23CC4CC(CC(C4)C2)C3)c(=O)n(C)c1=O,-22.6
8,CN(C)CCC(=O)NCC1OCCc2ccccc21 (stereo not shown),-2.16
9,COc1ccc(NC(=O)c2ccc(Cl)c(NC(=O)c3ccncc3)c2)cc1,-36.1
10,CCOC(=O)C1C(c2ccc(O)c(OC)c2)NC(=O)NC1(O)C(F)(F)F (stereo not shown),13.7
11,Cc1cccn2c(CN3CCSCC3)c(C(=O)N3CCOCC3)nc12,0.407
12,Cc1ccc(NS(=O)(=O)c2ccc(OCC(=O)N3CCOCC3)cc2)cc1,-2.62
13,COCCn1c(SCC(=O)Nc2nc(C)c(Cl)cc2Cl)nc2ccccc21,-47.3
14,O=C(COC(=O)C1CC2C=CC1C2)NCc1ccc(F)cc1 (stereo not shown),4.12
15,Cc1nc(=O)c(-c2ccccc2)c(C)n1-c1ccccc1,14.4
16,O=C(Nc1ccsc1C(=O)NC1CCCCC1)c1ccccc1,7.83
17,O=C(COC(=O)c1cccc(C(=O)OCC(=O)c2ccc(Br)cc2)n1)c1ccc(Br)cc1,1.29
18,CSCC[C@H](NC(=O)C1CCC(CNC(=O)[C@@H]2CCCN2C(=O)OC(C)(C)C)CC1)C(=O)O (stereo partly shown),4.71
19,CC(C)(C)Sc1ccc(N)nc1.Cl,-2.85
20,CC1CCCN(C(=O)c2ccc3c(c2NCCO)C(=O)c2ccccc2C3=O)C1 (stereo not shown),-22
21,Oc1ccccc1N1CCN(C(=S)NCCc2ccccc2)CC1,-2.16
22,COc1cc(CCC(=O)Nc2cnc3ccccc3c2)cc(OC)c1OC,-0.103

row,Structure (SMILES),"hERG current change (%, negative = inhibition) at 10uM [%]"
1,CC1CCN(C(=O)N2c3ccccc3Sc3ccccc32)CC1,-5.69
2,COc1cc(NC(=O)COC(=O)Cc2ccsc2)cc(OC)c1,7.86
3,CCC(C)N1C(=O)/C(=C\c2ccc(N3CCCCCC3)cc2)C(=O)NC1=S (stereo not shown),-4.65
4,O=C(Nc1ccc(F)cc1)Nc1cc(OCC(F)(F)F)cc(OCC(F)(F)F)c1,7.59
5,CC1CCC(NC(=O)CN2CCN(S(=O)(=O)c3cccs3)CC2)CC1 (stereo not shown),-16.5
6,CC12CCC(=O)N1C(C(=O)N1CCN(S(=O)(=O)c3cccc(C(F)(F)F)c3)CC1)CS2 (stereo not shown),-20.5
7,COc1ccc(C2(C)NC(=O)N(CC(=O)Nc3ccc4c(c3)OCO4)C2=O)cc1OC (stereo not shown),-8.35
8,Cc1cccc(C)c1OCc1n[nH]c(=S)n1N,15.5
9,Cc1cc(Cl)ccc1OC(C)C(=O)Nc1ccccc1N1CCOCC1 (stereo not shown),-10
10,O=C(NC1CCCCC1)C(c1cccnc1)N(C(=O)c1csnn1)c1ccccc1F (stereo not shown),-13.9
11,CCN1CCCC(CO)(Cc2ccccc2)C1 (stereo not shown),13.3
12,Cc1ccc(C)c(NS(=O)(=O)c2c(C)[nH]c(C)c2C(=O)N2CCCCC2)c1,-6.67
13,Cc1ccc(S(=O)(=O)CCC(=O)Nc2nnc(-c3cccs3)o2)cc1,-6.77
14,COc1ccc(Cn2cc([N+](=O)[O-])nc2C)cc1[N+](=O)[O-],-2.26
15,COCCn1c(-c2cccs2)csc1=Nc1cccnc1,-15.3
16,Cc1ccc2cc3cc(C(=O)N4CC(C)CC(C)C4)oc3nc2c1 (stereo not shown),1.38
17,CC(C)c1cc2cc3ccc(=O)oc3cc2o1,5.93
18,CCCn1c(-c2ccncc2)n[nH]c1=S,11.3
19,COc1cccc(NC(=O)CSc2nnc(Cc3cccn3C)n2-c2ccc(F)cc2)c1,-15.5
20,Clc1ncn(CCOc2ccccc2)c1Cl,-0.142
21,O=C(Cn1cc(C(=O)c2ccco2)c2ccccc21)NC1CC1,-0.551
22,COCCN(C(=O)COC(=O)c1cnc(C)cn1)c1c(N)n(Cc2ccccc2)c(=O)[nH]c1=O,-4.85
